Assay results from PubChem BioAssay AID1768 (National Center for Advancing Translational Sciences (NCATS), 2009).
Among all 270,000 compounds or so, about 620 (0.23%) were called active. Inconclusive results, whose numbers are uncertain, are shown with a selection of clear calls. The call rests on the fitted dose curve; in most records, active means well fitted inhibition curve with a large enough effect in the polarisation, with a control signal flat (not every such curve was filed as active); inconclusive means small, poorly fitted or top-dose-only effect, or effect the other way, or a change in a side signal; inactive means no such curve, though single readings can be large or run the other way; the % refers to the polarisation. Potencies of inconclusive entries are doubtful fits and often do not repeat. “Side channel” marks fits to a control or component signal instead of the main read-out.

Biological target: Menin (Homo sapiens) (UniProt O00255)
Assay: qHTS Assay for Inhibitors Targeting the Menin-MLL Interaction in MLL Related Leukemias: Competition With Texas Red Labeled MLL-derived Mutant Peptide
Settings: fluorescence polarization; series mostly up to 61.6 µM
Potency means the concentration at half of the fitted maximal effect; tags describe the fitted curve by direction and shape or compound fluorescence and quenching.

Sequence of UniProt O00255 (O00255 whole entry, looked up): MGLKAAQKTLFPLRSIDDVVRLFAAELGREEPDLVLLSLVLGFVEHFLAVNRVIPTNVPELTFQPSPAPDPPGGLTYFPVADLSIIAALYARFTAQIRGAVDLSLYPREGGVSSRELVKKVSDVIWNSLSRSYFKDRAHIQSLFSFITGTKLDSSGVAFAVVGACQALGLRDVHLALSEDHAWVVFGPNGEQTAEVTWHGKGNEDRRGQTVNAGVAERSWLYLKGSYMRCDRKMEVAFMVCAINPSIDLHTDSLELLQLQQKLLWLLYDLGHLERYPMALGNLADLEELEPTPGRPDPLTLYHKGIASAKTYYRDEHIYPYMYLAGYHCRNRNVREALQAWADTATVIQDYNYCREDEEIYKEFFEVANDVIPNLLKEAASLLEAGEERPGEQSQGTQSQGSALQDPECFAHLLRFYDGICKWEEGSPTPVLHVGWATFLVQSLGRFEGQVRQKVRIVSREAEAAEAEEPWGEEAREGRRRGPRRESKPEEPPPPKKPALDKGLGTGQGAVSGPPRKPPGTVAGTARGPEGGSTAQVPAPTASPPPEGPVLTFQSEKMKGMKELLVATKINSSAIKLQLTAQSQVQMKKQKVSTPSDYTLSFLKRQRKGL

**Q.** Nc1nonc1-n1nnc(C(=O)N/N=C/c2ccc(OCc3ccccc3F)cc2)c1CN1CCCCC1 was tested. Which Potency did it give?
**A.** Its Potency is “inactive”.

**Q.** For COc1cc(/C=C2/C(=O)NN(c3ccc(C)c(Cl)c3)C2=O)cc([N+](=O)[O-])c1O, which Potency is on record?
**A.** Its Potency is inconclusive: 15.8 µM [quencher, side channel, partial curve].

**Q.** Which Potency does the source give for O=[N+]([O-])c1ccc(-c2c(O)c3ccccc3c3nc4ccccc4nc23)cc1 here?
**A.** The Potency was inconclusive: 39.8 µM [fluorescent, side channel, single point].

**Q.** Which Potency does the source give for CC(=O)OCC(=O)[C@@]1(O)CCC2C3CC(C)C4=CC(=O)C=CC4(C)C3C(O)CC21C (stereo partly drawn) here?
**A.** The Potency was “inactive”.

**Q.** For COc1ccccc1N/C=C1/Sc2cc(Cl)ccc2NC1=O, which Potency is on record?
**A.** Its Potency is inconclusive: 15.8 µM [quencher, side channel, partial curve].

**Q.** For CC1CCc2c(sc(NC(=O)c3ccco3)c2C(=O)O)C1 (stereo not drawn), which Potency is on record?
**A.** Its Potency is inconclusive: 39.8 µM [quencher, side channel, partial curve].

**Q.** With COc1ccc(N(CC(=O)Nc2ccc(S(=O)(=O)N3CCOCC3)cc2)S(=O)(=O)c2ccc(F)cc2)cc1 as the compound, how does the Potency read?
**A.** The Potency was inconclusive: 8.91 µM [quencher, side channel, partial curve].

**Q.** For COc1ccc(CCN=C(N)NS(=O)(=O)c2ccc(F)cc2)cc1OC, which Potency is on record?
**A.** Its Potency is inconclusive: 0.631 µM [quencher, side channel, full curve, poor fit].

**Q.** OC1CCCN(CC(O)COc2ccc(-c3ccccc3)cc2)C1 (stereo not drawn) was tested. Which Potency did it give?
**A.** The Potency was inconclusive: 39.8 µM [inhibitor, single point].

**Q.** For C(=N\Nc1nc(Nc2ccccc2)nc(Nc2ccccc2)n1)/c1cccnc1, which Potency is on record?
**A.** Its Potency is inconclusive: 2.82 µM [quencher, side channel, full curve].

**Q.** How did the Potency turn out when CC(C)Sc1nc2ccc(N3C(=O)C4CCCCC4C3=O)cc2s1 (stereo not drawn) was run?
**A.** Its Potency is inconclusive: 39.8 µM [fluorescent, side channel, single point].

**Q.** For CC[C@H](C)[C@H](NC(=O)CNC(=O)[C@@H](NC(=O)[C@@H](NC(=O)[C@H](Cc1ccc(O)cc1)NC(=O)[C@H](CC(C)C)NC(=O)[C@H](C)NC(=O)[C@H](CCC(N)=O)NC(=O)CNC(=O)[C@@H]1CCCN1C(=O)CNC(=O)[C@H](Cc1ccccc1)NC(=O)[C@H](Cc1cnc[nH]1)NC(=O)[C@@H](NC(=O)CNC(=O)[C@H](CCCNC(=N)N)NC(=O)[C@H](CCCNC(=N)N)NC(=O)[C@@H](NC(=O)[C@H](CC(N)=O)NC(=O)[C@@H](N)CS)[C@@H](C)O)[C@@H](C)CC)[C@@H](C)O)[C@@H](C)O)C(=O)O, which Potency is on record?
**A.** The Potency was “inactive”.

**Q.** For CC(C)c1ccc(C2(O)C(=O)Nc3cc(Br)ccc32)c(O)c1 (stereo not drawn), which Potency is on record?
**A.** The Potency was inconclusive: 28.2 µM [quencher, side channel, single point].

**Q.** For O=C(N/N=C/c1cccc(O)c1)c1ccc(NC(=O)c2cccc([N+](=O)[O-])c2)cc1, which Potency is on record?
**A.** The Potency was inconclusive: 22.4 µM [quencher, side channel, partial curve].

**Q.** How did the Potency turn out when COc1cccc(C2CC(=O)Nc3cc4c(cc32)CCC4)c1 (stereo not drawn) was run?
**A.** The Potency was inconclusive: 3.16 µM [fluorescent, side channel, partial curve].

**Q.** For O=C(Nc1nccs1)c1ccc(COc2ccccc2Br)o1, which Potency is on record?
**A.** The Potency was inconclusive: 14.1 µM [quencher, side channel, partial curve].

**Q.** With CC1CN(c2ncnc3c2c(-c2ccccc2)cn3-c2ccc(F)cc2)CC(C)O1 (stereo not drawn) as the compound, how does the Potency read?
**A.** The Potency was inconclusive: 2.82 µM [fluorescent, side channel, partial curve].

**Q.** With C=CCc1c(C)nc(C)nc1N/N=C/c1ccc([N+](=O)[O-])cc1 as the compound, how does the Potency read?
**A.** The Potency was “inactive”.

**Q.** How did the Potency turn out when Cc1ccc(S(=O)(=O)N2CCC(=O)N(C(COCc3ccc(C(F)(F)F)cc3)C(C)C)CC2)cc1 (stereo not drawn) was run?
**A.** The Potency was inconclusive: 11.2 µM [fluorescent, side channel, partial curve].

**Q.** With Cc1ccc(C)c(Cn2c(=O)n(CCCC(=O)NCc3ccco3)c(=O)c3sccc32)c1 as the compound, how does the Potency read?
**A.** Its Potency is inconclusive: 14.1 µM [fluorescent, side channel, partial curve].

**Q.** Which Potency does the source give for COc1ccc(CC(=O)N/N=C/c2cc([N+](=O)[O-])cc(Br)c2O)cc1 here?
**A.** The Potency was inconclusive: 15.8 µM [quencher, side channel, partial curve].

**Q.** For CCn1c(=O)n(CC)c2cc(N3CCCC3)c(NC(=O)c3c(F)cccc3F)cc21, which Potency is on record?
**A.** The Potency was inconclusive: 15.8 µM [inhibitor, partial curve].

**Q.** Which Potency does the source give for Cc1cccc(C)c1OCc1cc(C(=O)N2CCN(C3CCCC3)CC2)no1 here?
**A.** The Potency was inconclusive: 35.5 µM [fluorescent, side channel, partial curve].

**Q.** How did the Potency turn out when C[C@H](NC(=O)OC(C)(C)C)c1nnc(SCC(=O)Nc2ccc(Br)cc2)o1 was run?
**A.** Its Potency is inconclusive: 39.8 µM [inhibitor, single point].

**Q.** O=[N+]([O-])c1cccc(/C=C/c2nc(C=Nc3ccccc3)c(O)o2)c1 was tested. Which Potency did it give?
**A.** The Potency was inconclusive: 22.4 µM [quencher, side channel, single point].

**Q.** Which Potency does the source give for Fc1ccc(Nc2nc(-c3cccnc3)cs2)cc1 here?
**A.** The Potency was inconclusive: 12.6 µM [quencher, side channel, partial curve].

**Q.** How did the Potency turn out when COc1cc(/C=C/C(=O)O)cc(S(=O)(=O)Nc2ccc3nc(SC)sc3c2)c1OC was run?
**A.** The Potency was inconclusive: 39.8 µM [quencher, side channel, single point].

**Q.** CC1(C)CC(=O)c2c(O)cc(OCc3ccc([N+](=O)[O-])cc3)cc2O1 was tested. Which Potency did it give?
**A.** Its Potency is inconclusive: 39.8 µM [inhibitor, single point].

**Q.** CCc1ccc(C(C(=O)NCc2ccc(OC)cc2)N(CCOC)C(=O)Cc2cccs2)cc1 (stereo not drawn) was tested. Which Potency did it give?
**A.** Its Potency is inconclusive: 0.708 µM [inhibitor, full curve, poor fit].

**Q.** CCCOC(=O)c1ccc(NC(=O)c2ccoc2C)cc1 was tested. Which Potency did it give?
**A.** Its Potency is inconclusive: 28.2 µM [quencher, side channel, single point].

**Q.** Which Potency does the source give for N=c1c(C(=O)NC2CCCC2)cc2c(=O)n3ccccc3nc2n1C1CCCC1 here?
**A.** Its Potency is “inactive”.

**Q.** How did the Potency turn out when CCCC(O)(c1ccc(OC)cc1)C(CN1CCOCC1)c1ccc(Cl)cc1 (stereo not drawn) was run?
**A.** The Potency was inconclusive: 7.94 µM [fluorescent, side channel, partial curve].

**Q.** With N#CC(=C(/N)Sc1ccccc1N)/C(C#N)=C(/N)Sc1ccccc1N as the compound, how does the Potency read?
**A.** The Potency was inconclusive: 12.6 µM [quencher, side channel, partial curve].

**Q.** For CCCN1CCC(=O)N([C@H](COc2ccccc2)Cc2ccccc2)CC1, which Potency is on record?
**A.** Its Potency is inconclusive: 20 µM [inhibitor, partial curve].

**Q.** How did the Potency turn out when O=C(COC(=O)/C=C/c1ccc(Cl)cc1Cl)Nc1ccc2c(c1)OCCO2 was run?
**A.** The Potency was inconclusive: 39.8 µM [inhibitor, single point].

**Q.** Which Potency does the source give for CC(=O)c1cccc(NC(=S)NNC(=O)c2ccc(C)c([N+](=O)[O-])c2)c1 here?
**A.** The Potency was inconclusive: 20 µM [quencher, side channel, partial curve].

**Q.** Which Potency does the source give for COc1ccc(/C=C/C(=O)NCc2cn(C)nc2C)cc1COc1ccc(Cl)cc1Br here?
**A.** The Potency was “inactive”.

**Q.** With Cc1cc(C=C2C(=O)c3ccccc3C2=O)c(C)n1-c1cccc(C(=O)O)c1 as the compound, how does the Potency read?
**A.** The Potency was inconclusive: 17.8 µM [quencher, side channel, single point].

**Q.** CSC1=N/C(=C\C=C\c2cccs2)C(=O)S1 was tested. Which Potency did it give?
**A.** The Potency was inconclusive: 28.2 µM [quencher, side channel, partial curve].

**Q.** With CCCN1CCN(C(=O)c2ccc(Sc3ccc(C)cc3)c(NC(C)=O)c2)CC1 as the compound, how does the Potency read?
**A.** Its Potency is inconclusive: 39.8 µM [inhibitor, single point].

**Q.** Which Potency does the source give for Cc1ccc(S(=O)(=O)N2CCN(CC(=O)N/N=C\C(Cl)=C\c3ccccc3)CC2)cc1 here?
**A.** Its Potency is “inactive”.

**Q.** With CCc1cc(=O)oc2cc(C)c(CN3CCCCC3)c(O)c12 as the compound, how does the Potency read?
**A.** The Potency was inconclusive: 31.6 µM [quencher, side channel, single point].

**Q.** With Cc1ccc(/C=C/C2=Cc3c(sc(NC(=O)CSc4n[nH]c(N)n4)c3C#N)C(C)(C)C2)o1 as the compound, how does the Potency read?
**A.** Its Potency is inconclusive: 12.6 µM [fluorescent, side channel, partial curve].

**Q.** For Cc1ccc(NC(=O)CCc2nc3ccccc3s2)c(O)c1, which Potency is on record?
**A.** The Potency was inconclusive: 39.8 µM [quencher, side channel, single point].

**Q.** CSCC[C@H](NC(=O)OC(C)(C)C)c1nnc(SCC=C(C)C)o1 was tested. Which Potency did it give?
**A.** The Potency was inconclusive: 28.2 µM [fluorescent, side channel, single point].

**Q.** CCCCCCOc1ccc(/C(C)=N/NC2=NCCN2)cc1 was tested. Which Potency did it give?
**A.** Its Potency is inconclusive: 8.91 µM [inhibitor, partial curve].

**Q.** For O=C(/C=C/c1cccc(Cl)c1)c1nc2ccccc2[nH]1, which Potency is on record?
**A.** The Potency was inconclusive: 11.2 µM [quencher, side channel, partial curve].

**Q.** For O[C@@H]1COC2[C@@H](O)CO[C@@H]21 (stereo partly drawn), which Potency is on record?
**A.** Its Potency is “inactive”.

**Q.** How did the Potency turn out when Cc1ccc(-c2nn(-c3ccccc3)cc2C(=O)Nc2ccc(C(=O)O)cc2)cc1 was run?
**A.** Its Potency is inconclusive: 12.6 µM [quencher, side channel, partial curve].

**Q.** How did the Potency turn out when O=C(N/N=C/C(Br)=C/c1ccccc1)c1cc(-c2ccco2)[nH]n1 was run?
**A.** Its Potency is inconclusive: 20 µM [quencher, side channel, single point].

**Q.** For CCN1C(=NCCc2ccc(Br)cc2)N[C@@H](c2ccccc2)[C@H](C(=O)OC)[C@H]1C, which Potency is on record?
**A.** Its Potency is “inactive”.

**Q.** Which Potency does the source give for COc1ccc2cc([C@H](C)C(=O)N(C)Cc3ccccc3N3CCCC3)ccc2c1 here?
**A.** The Potency was inconclusive: 10 µM [inhibitor, partial curve].

**Q.** COC(=O)c1ccc(Nc2ncnc3c2cnn3-c2cccc(C)c2)cc1 was tested. Which Potency did it give?
**A.** The Potency was inconclusive: 3.16 µM [quencher, side channel, full curve, poor fit].
